# Measurements published in the supplement of paper PMC11417369.
# ± gives the standard deviation of the averaged measurements. Some of the results follow.
# Tested on: PfAP2-I AP2 domain 3 (GST-tagged)
# Assay: gcPBM binding intensity (ln(normalized median fluorescence intensity)); higher = stronger DNA binding
# How it was run: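 After 1 h on an Agilent 4 × 180k array of primer-extended double-stranded 36-bp intergenic genomic probes and negative controls, bound GST-tagged P. falciparum DNA-binding domains were detected with Alexa488 anti-GST antibody and scanned at 488 nm. The domains had been expressed in E. coli, and binding took place in 1× PBS with 1% milk, 0.2 mg/ml BSA, 0.5% salmon testes DNA and 0.03% Triton X-100. Binding intensity is the highest Masliner-normalised natural-log median intensity across replicate spots of either probe orientation.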
row,Sequence,gcPBM binding intensity (ln)
1,TTCCATATAATTACATGTACACATTTTGAATAATAT [XGTACX_site3692],8.23 ± 0.3
2,ACAGATATACATAAAAAAAAAATAATTTTACATATA [CACACA_negctrl_site929],7.25 ± 0.49
3,AGCACAGACGGACACACACACATATATATATATATA [CACACA_site4341],9.41 ± 0.33
4,ATATATATGTATGTATGTACATATTTGAATTTATTT [XGTACX_site8470],7.76 ± 0.41
5,ATTTGTTACACTAAATGTACATACATACATATATAT [XGTACX_site6175],8.05 ± 0.44
6,TTATAAATTATAGGTACACACAAAAAAAAAAAGAAA [CACACA_site1327],7.99 ± 0.5
7,ATAAACATATCAATATGTACATATTTTTGTTTGTAT [XGTACX_site7018],7.69 ± 0.31
8,TTATAATAGTTAAATGTACACACTAACTACATGGAA [CACACA_site9070],7.95 ± 0.35
9,AAACCACAAAATTTTTTATATATGACCAATACATAG [CACACA_negctrl_site277],7.81 ± 0.54
10,ATTTATCAATAAAATGCACACACTGTAATATTATTA [CACACA_site3976],8.94 ± 0.014
11,TAATATAATATATATACACACAAGAAATACAAAACG [CACACA_site1378],8.25 ± 0.38
12,ACATAAATTTAATACACACACAAAGAAAAAAAAAAA [CACACA_site4088],8.31 ± 0.62
13,ATATTATTATAATATACATATATATATATAATATAT [CACACA_negctrl_site480],7.63 ± 0.15
14,TATATATATAATTAAAGTACATATAACCACAAAAAT [XGTACX_site7289],8.31 ± 0.4
15,GGTCTTTTCAACACACGTACATAAAAATATTATACA [XGTACX_site5360],8.6 ± 0.35
16,TAAACATATAGAGGGGTGCAAAGAATTGTAAAATTT,10.7 ± 0.18
17,TATATATTGATATGCACACCTATGTATTGATGTATA [CACACA_site1073],8.99
18,AATAATAATAAATATACACACATCATACAATTAACA [CACACA_site3679],7.74 ± 0.45
19,TATTTTTTTCTTACTACACACATATAGATGCTTTCC [CACACA_site7825],7.97 ± 0.67
20,TTATAAAAATAATATCGTACAAATGACATAGATGAA [XGTACX_site2570],7.66 ± 0.61
21,AGATATTTTATAATTACACACATGAGGTTATTTGAA [CACACA_site1999],7.66 ± 0.41
22,CATATACATAAACACACACACACATAAATAAATATA [CACACA_site4864],7.92 ± 0.23
23,ACATAAAATTGTTAAAAAATTGTATAAATAATACAT [XGTACX_negctrl_site557],7.49 ± 0.53
24,GAAAAGCAGATAAATGTGCACATATATGTTTGTATA,9.71 ± 0.43
25,TATAGGTATATATAAGTGCAATATATATGTATATAC [GTGCAC_site9427],10.9 ± 0.41
